In PMC4336329 (PLoS ONE, 2015):
The campaign covered roughly 310,000 compounds. About 14,000 (4.5%) showed an effect of 50% or more. Effects have a minus sign here. The list shows a part of the results.

Each compound was assayed against human ether-à-go-go-related gene (hERG) potassium channel (human, UniProt Q12809) (assay: primary screen, population patch clamp on CHO cells stably expressing hERG).
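Further: peak tail current of the secondary pulse compared with the same well before compound.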

Sequence of human ether-à-go-go-related gene (hERG) potassium channel (Q12809 whole entry, looked up): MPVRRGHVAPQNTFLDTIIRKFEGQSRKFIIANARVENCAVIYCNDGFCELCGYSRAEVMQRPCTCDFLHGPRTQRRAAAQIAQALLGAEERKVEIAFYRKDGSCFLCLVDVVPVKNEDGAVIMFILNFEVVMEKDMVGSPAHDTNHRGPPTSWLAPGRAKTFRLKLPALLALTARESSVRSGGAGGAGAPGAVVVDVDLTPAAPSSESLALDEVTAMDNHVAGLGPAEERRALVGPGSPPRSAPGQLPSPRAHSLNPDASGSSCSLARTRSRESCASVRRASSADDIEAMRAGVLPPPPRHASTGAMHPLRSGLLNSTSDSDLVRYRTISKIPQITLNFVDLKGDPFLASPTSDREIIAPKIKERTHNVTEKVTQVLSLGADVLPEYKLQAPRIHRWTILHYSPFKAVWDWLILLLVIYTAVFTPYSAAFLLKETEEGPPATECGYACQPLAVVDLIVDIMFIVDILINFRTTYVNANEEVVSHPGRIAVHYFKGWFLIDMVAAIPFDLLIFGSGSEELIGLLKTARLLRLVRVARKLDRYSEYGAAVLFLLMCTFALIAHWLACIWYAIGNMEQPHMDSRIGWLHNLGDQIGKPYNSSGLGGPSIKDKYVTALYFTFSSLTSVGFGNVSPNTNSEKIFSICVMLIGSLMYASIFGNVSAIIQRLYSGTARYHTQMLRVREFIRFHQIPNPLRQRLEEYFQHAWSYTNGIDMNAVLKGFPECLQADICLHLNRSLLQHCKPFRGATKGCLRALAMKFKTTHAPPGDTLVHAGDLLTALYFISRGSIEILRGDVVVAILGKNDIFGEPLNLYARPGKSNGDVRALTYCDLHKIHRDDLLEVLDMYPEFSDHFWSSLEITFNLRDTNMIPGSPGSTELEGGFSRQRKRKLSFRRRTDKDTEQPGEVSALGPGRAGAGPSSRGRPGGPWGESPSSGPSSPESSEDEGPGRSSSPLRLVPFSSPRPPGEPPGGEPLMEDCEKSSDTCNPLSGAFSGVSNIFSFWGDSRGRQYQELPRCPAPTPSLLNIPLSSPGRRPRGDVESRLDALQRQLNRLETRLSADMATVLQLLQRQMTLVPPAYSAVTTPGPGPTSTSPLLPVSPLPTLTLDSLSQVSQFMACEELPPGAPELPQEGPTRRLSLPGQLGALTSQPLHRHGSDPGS

| Structure (SMILES) | hERG current change (%, negative = inhibition) at 10uM |
| --- | --- |
| COc1ccc(C2CC(c3ccc(OC)cc3O)=NN2C(=O)c2ccccc2)cc1 (centres unmarked) | 8.48% |
| COc1ccc(C2CC(c3cccs3)=NN2C(=O)c2ccc(Br)o2)cc1 (centres unmarked) | 8.76% |
| Nc1cc(S(=O)(=O)Nc2ccccc2Cl)ccc1N1CCOCC1 | -4.06% |
| O=C(CNC(=O)c1ccc(Br)o1)NC12CC3CC(CC(C3)C1)C2 | 6.39% |
| COc1ccc(N2CCN(C(=O)CCNS(=O)(=O)c3ccccc3)CC2)cc1 | -4.25% |
| Cc1ccc(NCN2C(=O)C3C4CCC(C4)C3C2=O)cc1 (centres unmarked) | 12% |
| CCOc1oc(-c2ccc(OC)cc2)nc1C(F)(F)F | -1.8% |
| Cc1ccc(S(=O)(=O)N(C)C)cc1NC(=O)C1CCCN(C(=O)c2ccc(Cl)cc2)C1 (centres unmarked) | -22.2% |
| Cc1cccnc1NC(=O)CNC(=O)c1sc2ccccc2c1Cl | -0.683% |
| CC1Cc2cc(/C(O)=C3/C(=O)C(=O)N(CCN4CCOCC4)C3c3ccc([N+](=O)[O-])cc3)ccc2O1 (centres unmarked) | -5.63% |
| O=C(O)C(=O)O.O=S(=O)(c1cccc(Cl)c1Cl)N1CCN(C(=S)NCCCN2CCOCC2)CC1 | -19.7% |
| CCN1CCN(c2ccc(S(=O)(=O)N3CCCCC3)cc2NC(=O)c2cccc(C)c2)CC1 | -37.4% |
| COc1ccc(S(=O)(=O)Nc2cccc(-n3cnnn3)c2)cc1 | 1.11% |
| CCN1CCN(C(=O)CN(C)S(=O)(=O)c2ccc(OC)c(C)c2)CC1 | -13.6% |
| COc1ccccc1C1NC(=O)NC(C)=C1C(C)=O (centres unmarked) | -13.8% |
| Nc1cc(=O)[nH]c(SCC(=O)N2CCN(S(=O)(=O)c3ccc4ccccc4c3)CC2)n1 | 12.6% |
| Cc1ccccc1-c1nc(S(=O)(=O)c2ccc(Cl)cc2)c(NCCN2CCOCC2)o1 | -20.2% |
| COc1ccc(CNC(=O)C2CCN(C(=O)c3cccc(Cl)c3)CC2)cc1 | -44.9% |
| CC1=CC(=O)C=C(C)C1=NOc1ccc([N+](=O)[O-])cc1 | -3.45% |
| C=C(C)C(=O)Nc1cccc(C2=NOC3(C2)C[C@@H](C(N)=O)N(C(=O)C2(C)CC2)C3)c1 (some centres unmarked) | 5.65% |
| COC1=Cc2c(ccc3ccc(=O)oc23)OC1(C)C | 2.36% |
| O=C1COC(c2ccccc2)=CN1Cc1ccccc1 | -4.61% |
| O=C(O)Cc1nn(Cc2ccc(Cl)cc2)c(=O)c2ccccc12 | 20.6% |
| CC1=C(C(=O)Nc2cccc(C(=O)N3CCN(c4cccc(C(F)(F)F)c4)CC3)c2)SCCO1 | -11% |
| COc1ccc(Br)cc1/C=N/NC(=O)c1cccc(S(=O)(=O)N2CCOCC2)c1 | 11.6% |
| CN1C(=O)COc2c(C(=O)NC3CN4CCC3CC4)cc(Cl)cc21.Cl (centres unmarked) | -1.33% |
| CCN1C(=O)C2(C(C(=O)c3cc4ccccc4o3)=C(O)C(=O)N2CCCN(C)C)c2ccccc21 (centres unmarked) | 5.25% |

| Structure (SMILES) | hERG current change (%, negative = inhibition) at 10uM |
| --- | --- |
| COc1ccc(C(=O)CSc2nc(-c3ccccn3)nc(C)c2Cl)cc1 | 6.42% |
| CC(CC(=O)O)CC1=NS(=O)(=O)c2ccccc2N1 (centres unmarked) | 16.2% |
| COc1cccc(C2(O)CCN(C(=O)C3CCC3)CC2)c1 | 22.4% |
| Cn1c(=O)c2nncnc2n(C)c1=O | 4.62% |
| CCn1cc(C(=O)Nc2cccc(NC(C)=O)c2)c2cc(OC)c(OC)cc2c1=O | 10.3% |
| COCc1ccc(C(=O)N2CCCC(C(=O)c3cccc(C(F)(F)F)c3)C2)o1 (centres unmarked) | -0.276% |
| CC1(C)O[C@H]2CC(=O)OC[C@@]23C1CC(=O)[C@]1(C)C3CC[C@@]2(C)[C@H](c3ccoc3)OC(=O)[C@H]3O[C@]321 (some centres unmarked) | -10.6% |
| COc1ccc(C(=O)N/N=C(\C)c2ccccn2)cc1OC | -17.2% |
| COc1ccc2nc(NC(=O)c3cccc(-c4cc5ccccc5oc4=O)c3)sc2c1 | 5.56% |
| COc1ccc(NC(=O)CSc2ccc([N+](=O)[O-])cc2)cc1S(=O)(=O)N1CCOCC1 | -38.5% |
| N[C@H](CSCc1ccccc1)C(=O)Nc1ccc([N+](=O)[O-])cc1 | -23.9% |
| COC(=O)c1ccc(CN(c2ccccc2OC)S(=O)(=O)c2cccs2)o1 | -17.7% |
| NC(=O)c1cc(S(=O)(=O)N2CCCC2)ccc1OCc1ccc(F)cc1 | 11.6% |
| N/C(=N\OC(=O)Nc1cccc(C(F)(F)F)c1)c1ccno1 | 4.25% |
| CCOC(=O)C1(CCc2ccccc2)CCN(Cc2csc(C(C)=O)c2)CC1 | -74.8% |
| C=CCN1C(=O)C2(C(C(=O)c3ccc(C)o3)=C(O)C(=O)N2CCCN2CCOCC2)c2ccccc21 (centres unmarked) | 3.04% |
| N#C/C(=C\c1cccc(OCC(=O)O)c1)c1nc2ccccc2[nH]1 | 19.6% |
| O=C(COC(=O)C1=COCCO1)Nc1ccc([N+](=O)[O-])cc1C(F)(F)F | 1.36% |
| COc1ccccc1NC(=O)c1cc2cc(Br)ccc2cc1O | 22.9% |
| CC(=O)c1c(C)nc(-c2ccc(Cl)cc2)nc1NC(=O)C(C)C | -9.25% |
| C=CCn1c(SCCN2CCCC2)nc2c([nH]c3ccccc32)c1=O | -71.7% |
| O=C(O)CCN=CC1=C(O)CC(c2ccccc2)CC1=O (centres unmarked) | 3.13% |
| CCn1c(SCC(=O)NCC(=O)Nc2ccc(F)cc2)nnc1-c1cccs1 | -25.1% |
| COc1ccc(C(=O)Cn2nnc(-c3ccccc3NC(=O)C3CCCCC3)n2)cc1 | 2.23% |
| CC1CCc2sc(C(=O)NNS(=O)(=O)c3ccc(F)c(F)c3F)cc2C1 (centres unmarked) | -4.34% |
| Cc1ccc(C(=O)N2CCN(c3ncccn3)CC2)o1 | 13.4% |
